These results are taken from ChEMBL document CHEMBL4888484, “Replenishing the malaria drug discovery pipeline: Screening and hit evaluation of the MMV Hit Generation Library 1 (HGL1) against asexual blood stage Plasmodium falciparum ,using a nano luciferase reporter read-out” (2022).

In this test the test system is Plasmodium falciparum. Kind of test: Primary screen in NF54 nanoGlo assay, in single point, at 2uM, 72h; a lower Z score goes with more inhibition. The test is classed as functional, Erythrocyte. As to conditions: timepoint 72 hour.

By % Inhibition is commonly meant the drop in the measured response relative to a control, in per cent.

Among all 150,000 compounds or so, about 540 (0.36%) showed an effect of 50% or more. This is one part of the list.

Take `Cc1nccc(N2CCN(c3nccn3C)CC2)n1`: the “% Inhibition” value is reported as -7% and the Z score is 1.34.

For the compound `O=S1(=O)CCN(Cc2ccncc2Cl)[C@H](C2CC2)C1`, the “% Inhibition” value is 1% and the Z score is reported as -0.07.

On to `CCS(=O)(=O)N1CCC[C@H](Oc2ccncn2)C1`, for which the “% Inhibition” value is on record as -2% and the Z score was found to be 0.28.

For the compound `COc1ccc(-c2cc(C(=O)N3CCc4nnc(C)n4CC3)[nH]n2)cc1`, the “% Inhibition” value worked out at 4% and the Z score is recorded as -0.53.

As for `CCc1cc(C(=O)N(C)[C@@H](CO)C(C)(C)C)[nH]n1`, the “% Inhibition” value is 5% and the Z score is reported as -0.72.

With `CCC[C@H](NCc1csc(N(C)C)n1)c1ncccc1Cl`, the “% Inhibition” value was -15% and the Z score came out at 2.06.

With `O=C(NC[C@H]1COCCO1)NC1CCCCCCC1`, the “% Inhibition” value was -3% and the Z score is given as 0.35.

As for `CCc1nc(C)sc1CNC(=O)CC[C@@H]1CCCN2CCCC[C@H]12`, the “% Inhibition” value was 10% and the Z score is reported as -0.93.

Take `COCC(=O)N1CCC2(CCC(N(C)Cc3ccncc3C)CC2)CC1`: the “% Inhibition” value came to 0% and the Z score is -0.02.

Take `COc1cccc(C(=O)N[C@H]2CCc3c(cnc4cc(C)nn34)C2)c1`: the “% Inhibition” value amounted to 6% and the Z score was -0.76.

For `Fc1ccc(CN2CCOC[C@H](Oc3ccc(C(F)(F)F)cn3)C2)cc1`, the “% Inhibition” value is on record as -7% and the Z score was 1.08.

Consider `O=C(c1ccoc1)N1C2CCC1CC(S(=O)(=O)c1ccccc1)C2` (centres undefined), for which the “% Inhibition” value is -6% and the Z score amounted to 0.75.

Regarding `Cc1ccc(NC(=O)Nc2c(Cl)cccc2Cl)c2c1CC(C)(C)O2`, the “% Inhibition” value is listed as -2% and the Z score came out at 0.17.

For `COCC(=O)N1CCC(Cn2ccc3cccnc32)CC1`, the “% Inhibition” value is on record as -2% and the Z score is recorded as 0.33.

As to `COc1ccc([C@@]2(O)c3c(ccc(CC=C(C)C)c3O)NC(=O)[C@@H]2OC)cc1` [PENIPREQUINOLONE], the “% Inhibition” value is listed as 29% and the Z score is recorded as -3.26.

`CCOC(=O)[C@H]1NCCN[C@H]1C(=O)OCC`: the “% Inhibition” value is given as -12% and the Z score amounted to 1.4.

Turning to `Cc1cc(CNc2[nH]nnc2C)c(C)s1`, the “% Inhibition” value is listed as -45% and the Z score worked out at 5.23.

As for `COc1ccc(-c2cc3n(n2)CCC(=O)N3Cc2ccc(C(=O)NCCN3CCCCC3)cc2)cc1`, the “% Inhibition” value is recorded as 10% and the Z score is given as -1.2.

For the compound `O=C(COc1ccc2c(C(F)(F)F)cc(=O)n(CC3CCC3)c2c1)Nc1ccccc1F`, the “% Inhibition” value turned out to be 14% and the Z score is recorded as -2.03.

As to `Cc1cc(Cn2ccnc2-c2cccc3nonc23)on1`, the “% Inhibition” value turned out to be 6% and the Z score is listed as -0.98.

As for `O=C(C#Cc1ccccc1)N1CCC(OC[C@H]2CCCO2)CC1`, the “% Inhibition” value was 4% and the Z score is recorded as -0.62.

As to `Cc1ccc(S(=O)(=O)Nc2cc(C(=O)O)ccc2N2CCC(N3CCCCC3)CC2)c(C)c1`, the “% Inhibition” value is on record as -2% and the Z score was determined as 0.2.

As for `CCC(CC)C(=O)N[C@@H]1COCC[C@@H]1Oc1cccc(F)c1`, the “% Inhibition” value was found to be 5% and the Z score is -0.69.

As for `COc1ccc(NC(=O)N[C@H]2CCN(c3cc(N4CCCC4)cnn3)C2)c(C)c1`, the “% Inhibition” value stood at 1% and the Z score is reported as -0.19.

As to `CC(C)(C)CC(=O)Nc1cnc(N2CCCCC2)nc1`, the “% Inhibition” value was -21% and the Z score amounted to 1.87.

Take `O=C(Cn1c(=O)c2sccc2n(CC(=O)Nc2cccc(Cl)c2Cl)c1=O)NCCc1ccccc1`: the “% Inhibition” value was -7% and the Z score was found to be 0.85.

As to `CC(C)N1CC2(CN(C(=O)c3ccccc3)C[C@@H]3C[C@@H](O)CN32)C1`, the “% Inhibition” value is given as 29% and the Z score is listed as -3.33.

Consider `Cn1c(NCC(C)(C)c2ccncc2)nc2cnccc21`, for which the “% Inhibition” value turned out to be 3% and the Z score was -0.66.

For the compound `CN=C(NCCC(C)C)N1CCC(OC(C)(C)C)CC1`, the “% Inhibition” value is on record as -1% and the Z score was 0.28.

On to `C[C@H](NC(=O)N1CCN(C(CO)c2ccc(Cl)cc2)CC1)c1cccnc1` (some centres undefined), for which the “% Inhibition” value is recorded as -2% and the Z score is 0.3.

As to `N#CCC(=O)NC1(C(F)F)CCCCC1`, the “% Inhibition” value is on record as -5% and the Z score is listed as 0.49.

Take `c1ccc(-c2noc(CCN3CCOC[C@@H]3CC3CC3)n2)cc1`: the “% Inhibition” value is listed as -6% and the Z score was determined as 1.14.

`COc1ccc(CCNC(=O)c2sc(=S)n(Cc3ccco3)c2N)cc1OC`: the “% Inhibition” value is -8% and the Z score is reported as 1.13.

As to `COCC1(CNS(=O)(=O)N2CCOCC2)CCCC1`, the “% Inhibition” value is -4% and the Z score amounted to 0.38.

As for `COc1nc(-c2cccc(F)c2)n(-c2cccc(NC(=O)Nc3ccc(F)cc3F)c2)n1`, the “% Inhibition” value is listed as -1% and the Z score is given as 0.13.

`CCn1cc(Cl)c(C(=O)N2CCCC[C@H]2c2nc(-c3ccncc3)no2)n1`: the “% Inhibition” value is -11% and the Z score amounted to 1.45.

As for `O=C(CC1CC2CCC1C2)Nc1ccc[n+]([O-])c1` (centres undefined), the “% Inhibition” value was -7% and the Z score is on record as 0.92.

`Cc1cc(C(=O)NCc2nc(C(C)C)no2)cc(C)n1`: the “% Inhibition” value is given as -2% and the Z score is 0.34.

In the case of `Cc1csc(NC(=O)[C@H](C)N2CCC3(CC2)C(=O)NCCCN3C)n1`, the “% Inhibition” value is listed as -3% and the Z score came to 0.52.

Turning to `COc1cc(C)ccc1OCCn1ncc(N2CCOCC2)cc1=O`, the “% Inhibition” value is listed as -8% and the Z score was found to be 0.7.

In the case of `CCN(CC)[C@H]1CCN(C(=O)NCCC(C)C)C1`, the “% Inhibition” value was -8% and the Z score was 1.19.

Consider `NCc1cc(NC(=O)c2cn(C3CC3)nn2)cc(C(F)(F)F)c1`, for which the “% Inhibition” value was determined as 9% and the Z score is listed as -1.1.
